Test results reported in PubChem BioAssay AID686971 (National Center for Advancing Translational Sciences (NCATS), 2013).
Values joined by “and” are separate entries in the source; they are usually repeats but may differ in a detail not shown here. Equal values may be shown once. In all, about 360,000 compounds went through this assay and about 7,500 (2.1%) were called active. The shares of active, inactive and inconclusive entries below differ from those in the screen. Calls come from the whole dose curve; as a rule, active = well fitted cell-killing curve with a large enough effect; inconclusive = small, poorly fitted or top-dose-only effect, or effect the other way, or another doubt; inactive = no such curve, though single readings can be large or run the other way. Potencies beside an inconclusive call are fits to weak or partial responses and may not hold up.

Assay: qHTS for induction of synthetic lethality in tumor cells producing 2HG: qHTS for the HT-1080-IDH1KD cell line;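 for activity, negative = toxicity: 0% = DMSO wells and -100% = cell-free medium wells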
Conditions: HT-1080 IDH1 knockdown viability, ATP luminescence, 48 h; activity, negative = toxicity: at 46.1 µM (top of the series) unless noted
Method in brief: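 Knockdown cells (IDH1KD HT-1080) received compounds 2 h after plating at 750 cells/well and were kept 48 h at 37 °C in 5% FBS RPMI. A CellTiter-Glo luminescence read gave % activity for curve fitting.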
Potency is the fitted concentration of half-maximal effect; tags give direction and shape of the fitted curve.

| SMILES | Potency | activity, negative = toxicity |
| --- | --- | --- |
| O=C(Cn1cnc2ccc(Cl)cc2c1=O)c1cccs1 | inconclusive: 29.1 µM [cytotoxic, single point] |  |
| CC(=O)C1=C(O)C(=O)N(CCCN2CCOCC2)C1c1ccccc1[N+](=O)[O-] (stereo not given) |  | inconclusive: -35% [cytotoxic] |
| Clc1ccccc1Nc1c2c(nc3ncnn13)CCC2 |  | inconclusive: -31.7% |
| OCCNc1ncnc2c1ncn2[C@H]1CN(Cc2cccs2)C[C@@H](CO)O1 | inconclusive: 20.6 µM [rising, partial curve] |  |
| Nc1c(Cl)ncnc1NCCc1ccc(O)cc1 | inconclusive: 9.2 µM [cytotoxic, partial curve] |  |
| O=C(Nc1ccc(O)c2c(=O)cc(-c3ccccc3Cl)oc12)c1cccc(Cl)c1 | inactive |  |
| S=c1[nH]nc(COc2ccc(Cl)cc2)n1C1CCCCC1 | inconclusive: 6.31 µM [cytotoxic, partial curve] |  |
| Cc1ccc(C)c(COC(=O)c2cc([N+](=O)[O-])ccc2N2CCOCC2)c1 | inconclusive: 20.6 µM [cytotoxic, partial curve] |  |
| Cc1ccc(C(=O)CC(=O)c2cc(Cl)ccc2O)cc1 | inconclusive: 35.5 µM [cytotoxic, single point] |  |
| Cc1ccc(C(C)NC(=O)c2cc3cc(Br)ccc3oc2=N)cc1 (stereo not given) | inactive |  |
| Cc1[nH]n(-c2ccccc2)c(=O)c1N=Nc1nccs1 | active: 3.98 µM |  |
| Cc1cc([N+](=O)[O-])ccc1NC(=O)C(C)N1CCN(c2ccccn2)CC1 (stereo not given) | inactive |  |
| CC(C)(C)C1CCc2c(sc(NC(=O)C3CCCO3)c2C(N)=O)C1 (stereo not given) | inconclusive: 18.4 µM [cytotoxic, single point] |  |
| Cc1cc(=O)[nH]c(N/N=C/c2ccccc2Cl)n1 | inactive |  |
| O=C(COc1cccnc1[N+](=O)[O-])N1CCC(Cc2ccccc2)CC1 | inactive |  |
| CCOC(=O)c1ccc(NC(=S)NCC(O)c2ccccc2)cc1 (stereo not given) | inactive |  |
| O=C(Nc1ccc2c(c1)CCCN2C(=O)c1cccs1)c1c(F)cccc1F | inactive |  |
| Cc1cccc(N(C)S(=O)(=O)c2ccc3c(c2)CCC(=O)N3)c1 |  | inconclusive: -32% [cytotoxic] |
| COc1cc(NC(=O)N2CCc3nc(Nc4cc(Cl)cc(Cl)c4)ncc3C2)cc(OC)c1OC | inconclusive: 29.1 µM [cytotoxic, single point] |  |
| O=S(=O)(Nc1cccc2cccnc12)c1ccccc1 | active: 23.1 µM |  |
| COc1ccccc1OCc1nn[nH]n1 |  | inconclusive: 37.6% |
| Cc1ccc(-c2nn(CC(=O)NCc3ccco3)c(=O)c3ccccc23)cc1 | inconclusive: 18.4 µM [cytotoxic, single point] |  |
| CC(C)c1nc(SCC(=O)N2CC(=O)Nc3ccccc32)c2ccccc2n1 | inconclusive: 20.6 µM [cytotoxic, single point] |  |
| CCOC(=O)c1cnn(-c2ccc(NS(=O)(=O)c3ccc(Cl)cc3)cc2)c1C(F)(F)F | inconclusive: 29.1 µM [cytotoxic, single point] |  |

| SMILES | Potency | activity, negative = toxicity |
| --- | --- | --- |
| CCOC(=O)CC(S(=O)(=O)c1ccccc1)S(=O)(=O)c1ccccc1 | active: 20.6 µM |  |
| COc1ccc(NC(=O)C2(C)Cc3c(-c4ccccc4)ccnc3O2)cn1 (stereo not given) | inconclusive: 16.4 µM [cytotoxic, single point] |  |
| CCCCN1C(C(=O)Nc2ncccn2)=C(O)c2ccccc2S1(=O)=O | inactive |  |
| Cc1cccc(N(C(=O)Cn2nnc3ccccc32)C(C(=O)NC(C)(C)C)c2ccsc2)c1C (stereo not given) | inactive |  |
| COc1cc(-c2coc3c(C(=O)NC4CCCCC4)cccc23)ccc1O | active: 20.6 µM |  |
| Cc1ccc(S(=O)(=O)N2C[C@H]3n4c(=O)ccc(=O)n4C[C@H](OC(=O)NCC4CCCCC4)[C@@]3(O)C2)cc1 | inconclusive: 20.6 µM [cytotoxic, single point] |  |
| C=C(CN(C)C)C(=O)c1cc(C)ccc1C | active: 4.61 µM |  |
| N#CCCn1cc(C(=O)Nc2ccccc2Br)c(-c2cc3ccccc3o2)n1 | inactive |  |
| C/C(N)=C(/C#N)C(=O)COC(=O)c1cc(-c2ccc(Br)cc2)nc2ccccc12 | inconclusive: 14.6 µM [cytotoxic, partial curve] and inconclusive: 29.1 µM [cytotoxic, single point] |  |
| COc1cc(OC)c(NC(=O)c2cc3ccccc3cc2O)cc1Cl | inactive |  |
| Cc1cccc(-c2ccc([N+](=O)[O-])cc2CN2CCN(c3ncc(Cc4ccccc4)cn3)CC2)c1 | inconclusive: 18.4 µM [cytotoxic, single point] |  |
| Cc1nc2sccn2c(=O)c1CCN1CCC(=C(c2ccc(F)cc2)c2ccc(F)cc2)CC1 | inconclusive: 29.1 µM [cytotoxic, single point] |  |
| Cc1cc(Cl)ccc1C(O)c1ncc(-c2ccccc2C(F)(F)F)[nH]1 (stereo not given) | inconclusive: 29.1 µM [cytotoxic, single point] |  |
| COc1cccc(C(C)(O)c2nc(-c3cc4ccccc4o3)cs2)c1 (stereo not given) | inconclusive: 29.1 µM [cytotoxic, single point] |  |
| COc1cc(/C=N/n2c(-c3ccccc3)n[nH]c2=S)cc(OC)c1OC | inconclusive: 11.6 µM [cytotoxic, partial curve] |  |
| COc1ccccc1N1CCN(CCNC(=O)Nc2cccc(C)c2C)CC1 | inconclusive: 16.4 µM [cytotoxic, single point] |  |
| COCCn1c(=O)[nH]c(=O)c2c1nc(-c1ccc(-c3ccc(Cl)cc3[N+](=O)[O-])o1)n2Cc1ccccc1 | inconclusive: 13 µM [cytotoxic, partial curve] |  |
| COc1cccc(-c2ccc(NC(=O)C3CCCN(Cc4cnn(C)c4)C3)cc2)c1 (stereo not given) | active: 16.4 µM |  |
| O=C(Cc1ccccc1F)Nc1nc(-c2cccs2)cs1 | inconclusive: 29.1 µM [cytotoxic, single point] |  |
| CCOC(=O)c1ccc(NC(=S)N(CCCN2CCCCCC2)Cc2ccco2)cc1 | inconclusive: 29.1 µM [cytotoxic, single point] |  |
| Cc1cc(C(=O)COc2cccnc2[N+](=O)[O-])c(C)n1-c1ccccc1 | inconclusive: 5.17 µM [cytotoxic, full curve, poor fit] |  |
| COc1ccc(C(=O)Nc2cccc(-c3nc4ncccc4o3)c2C)cc1 | inactive |  |
| CCOC1=C2CN(S(=O)(=O)c3ccc(C)cc3)[C@H](c3cccc4ccccc34)C[C@H]2C(C#N)(C#N)C(C#N)(C#N)C1 | inconclusive: 20.6 µM [cytotoxic, single point] |  |
| CN=C(Nc1cc(C)nn1CCC#N)c1ccc(F)cc1 |  | inconclusive: 42.7% |

| SMILES | Potency | activity, negative = toxicity |
| --- | --- | --- |
| Fc1ccc(Sc2nc(-c3ccccc3)nnc2C(F)(F)F)cc1 | active: 23.1 µM |  |
| Cc1cc2cc(C(=O)N3CCc4c([nH]c5ccccc45)C3c3ccccn3)ccc2o1 (stereo not given) | inconclusive: 29.1 µM [cytotoxic, single point] |  |
| CC(C(=O)N/N=C/c1ccc(N(C)C)c(Br)c1)N(c1ccccc1)S(C)(=O)=O (stereo not given) |  | inactive: 3.67% [at 9.24 µM] |
| O=C(N/N=C/c1ccc2c(c1)OCO2)c1ccc2c(c1)OCO2 | inconclusive: 20.6 µM [cytotoxic, partial curve] |  |
| CCOC(=O)c1cccc(NC(=O)c2ccc(NC(=O)c3ccco3)cc2)c1 | inconclusive: 16.4 µM [cytotoxic, single point] |  |
| CCCCN(C(=O)NC(=O)Nc1cc(C)ccc1C)S(C)(=O)=O | inconclusive: 10 µM [rising, partial curve, poor fit] |  |
| NC(=O)C1CCN(CC(O)COc2ccc(-c3ccccc3)cc2)CC1 (stereo not given) | inconclusive: 29.1 µM [cytotoxic, single point] |  |
| Cc1cc(NC(=O)COc2cccc(Oc3ccccc3)c2)no1 | inconclusive: 11.6 µM [cytotoxic, partial curve] |  |
| CCOc1ccccc1N(C)S(=O)(=O)c1ccc2c(c1)CC(C)N2C(=O)C1CC1 (stereo not given) | active: 14.6 µM |  |
| COC(=O)c1ccc(NC(=O)CSC2=Nc3ccccc3C3CC=NN23)cc1 (stereo not given) | inactive |  |
| COc1ccc2nc(N/C(N)=N/C(=S)Nc3cccc(C)c3)nc(C)c2c1 | inactive |  |
| N/C(Cc1ccc([N+](=O)[O-])cc1)=N\OC(=O)Cc1ccc(Cl)cc1 | inactive |  |
| COc1cc(NC(=O)c2noc3c2CCC3)c(OC)cc1Cl | inactive |  |
| Cc1cccc(/N=C/c2c(O)c3ccccc3oc2=O)n1 | inconclusive: 25.9 µM [cytotoxic, single point] |  |
| CCOc1c(Br)cc(/C=C(\C#N)C(=O)NC2CC2)cc1OC | inconclusive: 29.1 µM [cytotoxic, single point] |  |
| CCc1sc(C(C2C(=O)CC(C)(C)CC2=O)C2C(=O)CC(C)(C)CC2=O)cc1[N+](=O)[O-] | inconclusive: 20.6 µM [cytotoxic, single point] |  |
| c1ccc(C2NCCc3ccccc32)cc1 (stereo not given) | inconclusive: 25.9 µM [cytotoxic, single point] |  |
| CC1=C(C(=O)OC2CCCCCC2)C(c2ccc(C)o2)C2=C(CCCC2=O)N1 (stereo not given) | inconclusive: 35.5 µM [cytotoxic, single point] |  |
| CCOC(=O)c1[nH]c(C)c(/C(O)=C2\C(=O)C(=O)N(CCN(C)C)C2c2ccc(C)o2)c1C (stereo not given) | inconclusive: 22.4 µM [cytotoxic, single point] |  |
| O=C1CN(S(=O)(=O)c2cc(C(F)(F)F)ccc2Cl)CCN1 | inactive |  |
| O=C(N/N=C/c1ccc2c(c1)OCO2)c1ccccn1 | inconclusive: 0.112 µM [cytotoxic, full curve, poor fit] |  |
| CCc1ccc(C(=O)N2CCN(c3ccc(NC(=O)c4ccco4)cc3)CC2)cc1 | inactive |  |
